# Results taken from ChEMBL document CHEMBL1201862, “PubChem BioAssay data set” (2004).
# System: NCI-H322M
# Assay: NCI tumour cell line growth inhibition, 48 h
row,Compound,GI50
1,CC1=C(c2ccccc2)NC(=S)C(C)C(c2ccccc2)=N1 (configuration not stated),inactive: 49.8 µM
2,[O-][n+]1c(-c2ccccc2)oc2ccccc21,inactive: 16.2 µM
3,CN(C)Cc1cc(C(=O)O)cc(CN(C)C)c1O,inactive: > 100 µM
4,O=C(Nc1ccc([N+](=O)[O-])cc1)C(=O)C(C(=O)c1ccccc1F)C1OC(=O)c2ccccc21 (configuration not stated),inactive: 30.1 µM
5,O=C(O)c1ccccc1/N=N/c1c(O)c(S(=O)(=O)O)cc2cc(S(=O)(=O)O)ccc12,inactive: > 100 µM
6,CCOc1cc2c(NCCCN(CCO)CCO)ncnc2c(OCC)c1OCC,inactive: > 100 µM
7,Nc1nc(=O)[nH]c2c1cnn2C1CCCCO1 (configuration not stated),inactive: > 100 µM
8,Cc1ccc(C2=CC(=O)OC(C[P+](c3ccccc3)(c3ccccc3)c3ccccc3)(c3ccccc3)O2)cc1 (configuration not stated),inactive: 17.4 µM
9,COc1ccc(C(=O)C(C(=O)C(=O)NC2C3CC4CC(C3)CC2C4)c2ccc(OC)cc2)cc1 (configuration not stated),inactive: > 100 µM
10,C=C1C(=O)O[C@@H]2[C@H](O)[C@@H](C)[C@@H]3C=CC(=O)[C@@]3(C)[C@H](OC(=O)C=C(C)C)[C@H]12,inactive: 2.86 µM
11,C[N+](C)(CCNC(=O)c1cccc2cc3ccccc3nc12)Cc1ccc([N+](=O)[O-])cc1,inactive: > 100 µM
12,C=C(C)C1(Sc2ccc(OC)cc2)CC1,inactive: 73.8 µM
13,COc1ccc(C(=O)/C=C/c2ccc(OCC(=O)N3CCN(c4ccccc4)CC3)cc2)cc1OC,inactive: 3.7 µM
14,CCCCC1CCCCCCc2[nH]c(/C=C3\N=C(c4ccc[nH]4)C=C3OC)cc21 (configuration not stated),active: 0.0361 µM
15,COc1cccc2c1C(=O)c1c(O)c3c(c(O)c1C2=O)C[C@@](O)(C(=O)CO)C[C@@H]3OC1CC(N(C)C)C(O)C(C)O1 (some centres not stated),active: < 0.016 µM
16,CCN(CC)C(=S)S [DITIOCARB SODIUM],inactive: > 100 µM
17,C#CC(C)(C)OC(=O)C(=[N+]=[N-])C(C)=O,inactive: 9.31 µM
18,C/C(=N\NC(=O)C[N+](C)(C)C)c1sc(-c2cccnc2)nc1C,inactive: > 100 µM
19,Cc1nc(O)nc2nc3ccc(Cl)cc3c(N(CCO)CCO)c12,inactive: > 100 µM
20,O=c1[nH]c2[nH]c(-c3ccc(Br)cc3)cc2c2ccccc12,inactive: 64.1 µM
21,C=CCOc1ccc(N)c([N+](=O)[O-])c1,inactive: > 100 µM
22,Oc1cc(N2CCCC2)ccc1/C=N/N1C(=S)N(c2ccccc2)C(=N\c2ccccc2)/C1=N/c1ccccc1,inactive: > 100 µM
23,Cc1ccc(NC(=O)C(=O)CC(=O)c2sc(Nc3c(C)cccc3C)nc2C)cc1C,inactive: > 100 µM

row,Compound,GI50
1,CC1(Cl)CC2C(CC1Sc1nnnn1-c1ccccc1)C2(C)C (configuration not stated),inactive: > 100 µM
2,CN1CCC(=O)/C(=C/c2ccccc2)C1,inactive: 17.1 µM
3,CC1=C(C(=O)NCc2ccccc2)C(c2ccc([N+](=O)[O-])cc2)C(C(=O)NCc2ccccc2)=C(C)N1,inactive: 28.1 µM
4,Cc1cc2c(c(C(=O)NCCC(=O)N[C@@H](C)C(=O)OCc3ccccc3)c1)Oc1c(cc(C)cc1C(=O)NCCC(=O)N[C@@H](C)C(=O)OCc1ccccc1)S2,inactive: > 100 µM
5,Nc1nc(O)nc2c1ncn2C1OC(CO)C(O)C1O (configuration not stated),inactive: 76.4 µM
6,CCOP(=O)(Nc1ccccc1P(=O)(OCC)OCC)OCC,inactive: > 100 µM
7,Cc1ccc2[nH]/c(=N/S(=O)(=O)c3cc(C)c(Cl)cc3S)[nH]c2c1,inactive: 50.9 µM
8,CCOP(=Nc1ccc(N(C)C)cc1)(OCC)OCC,inactive: > 100 µM
9,c1ccc2c(c1)nnn2CN1CCOCC1,inactive: > 100 µM
10,N#CC(NNC(=O)c1ccccc1O)c1ccccc1O (configuration not stated),inactive: 4.53 µM
11,C[N+](C)(C)CC(=O)N/N=C(\C(=O)Nc1ccc(Cl)cc1)C1C(=O)N(c2ccccc2)N=C1N (configuration not stated),inactive: > 100 µM
12,CC12CC(c3ccccc3O1)C(C(=O)Nc1nccs1)C(=O)N2 (configuration not stated),inactive: > 100 µM
13,CC[C@@]1(O)C(=O)OCc2c1cc1n(c2=O)Cc2c-1nc1ccccc1c2Cl,active: 0.157 µM
14,n1onc2c1NC1Nc3nonc3NC1N2 (configuration not stated),inactive: > 100 µM
15,Nc1cc(-c2ccccc2)nn1-c1nsc2ccccc12,inactive: > 100 µM
16,CCCC(=O)OC1CC(n2cc(F)c(=O)[nH]c2=O)OC1CO (configuration not stated),inactive: 3.55 µM
17,C1=C(c2ccccc2)C(N2CCOCC2)Oc2ccccc21 (configuration not stated),inactive: 36.6 µM
18,CCCCNC(=S)OCCC(C)CCCC(C)C (configuration not stated),inactive: > 100 µM
19,COc1cc2c(c(OC)c1OC)-c1ccc(SC)c(=O)cc1[C@@H](NC(=O)C(F)(F)F)CC2,active: 0.0356 µM
20,CCOC(=O)CCC(NC(=O)OCc1ccccc1)C(=O)NNC(=O)OC(C)(C)C (configuration not stated),inactive: > 100 µM
21,CN/N=C(\C(=O)Nc1ccc(C(F)(F)F)cc1[N+](=O)[O-])C(c1cnc2ccc([N+](=O)[O-])cc2n1)[N+](=O)[O-] (configuration not stated),inactive: > 100 µM
22,CN(C)c1nc(N(C)C)nc(N(C)CN(C)c2ccccc2)n1,inactive: > 100 µM
23,N#CC(NNC(=O)Cc1ccccc1)c1ccccc1O (configuration not stated),inactive: 11 µM

row,Compound,GI50
1,Cc1cccc(N2C(=O)C(=O)C(c3nc4ccccc4s3)C(=O)C2=O)c1C,inactive: > 100 µM
2,CCN(CC)c1ccc2cc(-c3nc4ccccc4n3C)c(=O)oc2c1,active: 0.52 µM
3,CC(=O)OC[C@]1(O)CC[C@@]23CC1C[C@@H]2CCC1C(C)(C)CCC[C@@]13C (some centres not stated),inactive: 16.1 µM
4,O=C1C(=O)N(c2cc(Cl)ccc2Cl)C(=O)C(=O)C1c1nc2ccccc2s1,inactive: 45 µM
5,CS(=O)(=O)Nc1ccc(Nc2c3ccccc3nc3ccccc23)cc1,inactive: 5.86 µM
6,C[C@]12CCCC(=O)C1C[C@H](C(=O)O)CC2 (some centres not stated),inactive: > 100 µM
7,COc1ccc(/C(=N/O)c2ccccc2-c2nc3ccccc3c(=O)n2-c2ccc(S(=O)(=O)Nc3ncccn3)cc2)cc1C,inactive: 25.6 µM
8,CC(=O)NC(CCCCNC(=O)N(C)N=O)C(=O)NCc1ccccc1 (configuration not stated),inactive: > 100 µM
9,C=CC(=O)c1ccc2c(c1)OCCOCCOCCOCCOCCO2,inactive: > 100 µM
10,CS/C(N)=N/c1cccc2ccccc12,inactive: > 10 µM
11,C=C1CC[C@@H](CCC2CCC3(OC2)O[C@]2(O)CC[C@@]3(C)OC2(C)C)C(C)(C)[C@H]1C/C=C1\CCOC1=O (some centres not stated),inactive: 29.1 µM
12,N#CC(c1ccccc1)c1cccc2ccccc12 (configuration not stated),inactive: 37 µM
13,CC(=O)n1c(=O)c2cc3c(=O)n(-c4cccc(C#N)c4)c(=O)c3cc2c1=O,inactive: > 100 µM
14,O=[N+]([O-])c1ccc([I+]c2ccccc2)cc1,inactive: 8.34 µM
15,CC(NNC(=O)c1cc[n+]([BH2-]C#N)cc1)c1ccc(Cl)cc1Cl (configuration not stated),inactive: 43.5 µM
16,c1cc(-c2cnc(-c3ccc4c(c3)CCCO4)o2)ccn1,inactive: 19 µM
17,N/N=c1/nc2n(c3ncccc13)C=CNN2,inactive: > 100 µM
18,Cc1ccc(S(=O)(=O)C(C#N)c2nc3ccccc3nc2-n2ccnc2)cc1 (configuration not stated),inactive: > 100 µM
19,CC(=O)Nc1nc(O)c2nc(C=O)cnc2n1,inactive: > 100 µM
20,CC(=O)N1CCC2(C=Nc3ccccc32)CC1,inactive: > 100 µM
21,COc1cc2c(ccc3c4cc(OC)c(OC)cc4c[n+](C)c23)cc1O [FAGARONINE],inactive: 7.43 µM

#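 Results reflect a 48-hour exposure of cells in 96-well plates to compound at five concentrations. At the GI50, growth is halved.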 Calls of active or inactive are those of the source. No stated cut-off is given here; in the data, active = GI50 up to about 1.1 µM and inactive = higher.
